Tests used:
[1] = system: MRSA strain USA300; assay: microbe, parasite or virus in culture; settings: for effect on the growth of the bacteria: 1 μg/mL; for activity at 1 µg/mL / activity at 10 µg/mL: Staphylococcus aureus, read-out: Growth; for Growth: DMSO control = 100
[2] = system: MRSA strain USA300; assay: microbe, parasite or virus in culture; settings: for inhibition of rabbit blood hemolysis compared to diflunisal: 1 μg/mL; for hemolysis at 1 µg/mL / hemolysis at 10 µg/mL: Staphylococcus aureus, Erythrocyte, in Oryctolagus cuniculus; for hemolysis at 1 µg/mL / hemolysis at 10 µg/mL / Hemolysis: DMSO control = 100

SMILES | activity at 1 µg/mL [1] [%] | activity at 10 µg/mL [1] [%] | hemolysis at 1 µg/mL ([2]; 1 μg/mL compound) [%] | hemolysis at 10 µg/mL ([2]; 10 μg/mL compound) [%] | Growth ([1]; 10 μg/mL compound) [%] | Hemolysis ([2]; 10 μg/mL compound) [%] | also measured
CCCc1cc(C(=O)COc2ccc(C(C)C)cc2)c(O)cc1O [4e-19] | 95.6 | 6 | 22.9 ± 0.6 | -2.1 ± 0.1 |  |  | effect on the growth of the bacteria [1]: without affecting the growth of the bacteria; inhibition of rabbit blood hemolysis compared to diflunisal [2]: greater inhibition of rabbit blood hemolysis
CCc1cc(C(=O)COc2cccc(C)c2)c(O)cc1O [4b-10] | 102 | 86 | 66.7 ± 3.4 | 1.6 ± 0.1 |  |  | 
O=C(COc1ccccc1)c1c(O)cc(O)cc1O [4c-0] |  |  |  |  | 108.2 | 46.3 ± 1.9 | 
O=C(COc1cccc(F)c1)c1c(O)cc(O)cc1O [4c-1] | 105 | 76.9 | 120 ± 18.5 | 1.4 ± 0.1 |  |  | 
O=C(COc1ccc(F)c(F)c1)c1c(O)cc(O)cc1O [4c-14] |  | 113 |  | 37.8 ± 2.8 |  |  | 
CCc1cc(C(=O)COc2cccc(F)c2)c(O)cc1O [4b-1] | 93.5 | 97.7 | 88.5 ± 12.8 | 22.4 ± 3.9 |  |  | 
O=C(O)c1cccc(OCC(=O)c2ccc(O)cc2O)c1 [4a-24] |  | 102 |  | 80.5 ± 6.5 |  |  | 
Cc1cc(C(=O)COc2ccc([N+](=O)[O-])cc2)c(O)cc1O [4d-22] |  |  |  |  | 101.7 | 98.8 ± 11.0 | 
CCc1cc(C(=O)COc2ccc(F)cc2)c(O)cc1O [4b-6] |  |  |  |  | 100.2 | 11.1 ± 0.2 | Growth ([1]; 1 μg/mL compound): 102.3%; Hemolysis ([2]; 1 μg/mL compound): 85.1 ± 7.0%
CCc1cc(C(=O)COc2ccccc2C(=O)OC)c(O)cc1O [4b-27] |  | 97.8 |  | 29.3 ± 2.1 |  |  | 
Cc1cc(C(=O)COc2ccc(Cl)cc2)c(O)cc1O [4d-4] |  |  |  |  | 103.8 | 12.9 ± 2.8 | Growth ([1]; 1 μg/mL compound): 99.5%; Hemolysis ([2]; 1 μg/mL compound): 169.3 ± 23.8%
O=C(COc1ccc(I)cc1)c1ccc(O)cc1O [4a-8] | 94.2 | 69.6 | 74.8 ± 9.9 | 1.4 |  |  | 
CCCc1cc(C(=O)COc2cc(F)c(F)c(F)c2)c(O)cc1O [4e-17] | 105 | 77.5 | 14.8 ± 0.4 | -2.4 ± 0.3 |  |  | effect on the growth of the bacteria [1]: without affecting the growth of the bacteria; inhibition of rabbit blood hemolysis compared to diflunisal [2]: greater inhibition of rabbit blood hemolysis
CCCc1cc(C(=O)COc2ccc(C(=O)OC)cc2)c(O)cc1O [4e-29] | 104 | 95.9 | 109 ± 17.3 | 3.1 ± 0.1 |  |  | 
CCCc1cc(C(=O)COc2cccc(F)c2)c(O)cc1O [4e-1] | 104 | 55.2 | 36.9 ± 1.1 | 1.6 ± 0.2 |  |  | effect on the growth of the bacteria [1]: without affecting the growth of the bacteria; inhibition of rabbit blood hemolysis compared to diflunisal [2]: greater inhibition of rabbit blood hemolysis
COC(=O)c1cccc(OCC(=O)c2c(O)cc(O)cc2O)c1 [4c-28] |  | 103 |  | 90.5 ± 5.9 |  |  | 
CCCc1cc(C(=O)COc2cccc(C)c2)c(O)cc1O [4e-10] | 98.9 | 88.4 | 18.7 ± 0.7 | 11.5 ± 1.2 |  |  | effect on the growth of the bacteria [1]: without affecting the growth of the bacteria; inhibition of rabbit blood hemolysis compared to diflunisal [2]: greater inhibition of rabbit blood hemolysis
CCc1cc(C(=O)COc2ccccc2C)c(O)cc1O [4b-9] |  |  |  |  | 51.4 | 0.4 ± 0.0 | Growth ([1]; 1 μg/mL compound): 103.7%; Hemolysis ([2]; 1 μg/mL compound): 72.9 ± 5.5%
CC(C)(C)c1ccc(OCC(=O)c2ccc(O)cc2O)cc1 [4a-20] | 108 | 4.3 | 79.7 ± 1.8 | -3.3 ± 0.1 |  |  | 
O=C(COc1c(F)cccc1F)c1c(O)cc(O)cc1O [4c-13] |  |  |  |  | 114.7 | 23.0 ± 3.1 | 
CCCCCCc1cc(C(=O)COc2cccc(F)c2)c(O)cc1O [4f-1] | 104 | 106 | 95.4 ± 1.2 | 9.3 ± 1.11 |  |  | 
O=C(COc1ccccc1F)c1ccc(O)cc1O [4a-5] |  |  |  |  | 101.8 | 26.7 ± 1.5 | 
CCc1cc(C(=O)COc2ccccc2)c(O)cc1O [4b-0] |  |  |  |  | 100.6 | 2.1 ± 0.2 | Growth ([1]; 1 μg/mL compound): 102.4%; Hemolysis ([2]; 1 μg/mL compound): 90.8 ± 6.6%
CCCc1cc(C(=O)COc2ccccc2C(=O)OC)c(O)cc1O [4e-27] |  | 105 |  | 25.2 ± 3 |  |  | 
Cc1cc(C(=O)COc2ccccc2F)c(O)cc1O [4d-5] |  |  |  |  | 103.6 | 34.1 ± 3.6 | 
CCCc1cc(C(=O)COc2ccc(C)cc2)c(O)cc1O [4e-11] |  | 96.2 |  | 30.3 ± 4.2 |  |  | 
CCCc1cc(C(=O)COc2c(F)cccc2F)c(O)cc1O [4e-13] |  |  |  |  | 38 | 1.3 ± 0.1 | effect on the growth of the bacteria [1]: without affecting the growth of the bacteria; Growth ([1]; 1 μg/mL compound): 105.9%; inhibition of rabbit blood hemolysis compared to diflunisal [2]: greater inhibition of rabbit blood hemolysis; Hemolysis ([2]; 1 μg/mL compound): 27.3 ± 1.9%

SMILES | activity at 1 µg/mL [1] [%] | activity at 10 µg/mL [1] [%] | hemolysis at 1 µg/mL ([2]; 1 μg/mL compound) [%] | hemolysis at 10 µg/mL ([2]; 10 μg/mL compound) [%] | Growth ([1]; 10 μg/mL compound) [%] | Hemolysis ([2]; 10 μg/mL compound) [%] | also measured
O=C(COc1ccc(Cl)cc1)c1ccc(O)cc1O [4a-4] |  |  |  |  | 95.5 | 7.5 ± 0.5 | Growth ([1]; 1 μg/mL compound): 96.7%; Hemolysis ([2]; 1 μg/mL compound): 119.1 ± 7.4%
Cc1cc(C(=O)COc2cc(F)c(F)cc2F)c(O)cc1O [4d-16] |  |  |  |  | 100.5 | 28.3 ± 6.6 | 
CCc1cc(C(=O)COc2ccc(F)cc2F)c(O)cc1O [4b-12] |  |  |  |  | 93.2 | 1.7 ± 0.2 | Growth ([1]; 1 μg/mL compound): 104.7%; Hemolysis ([2]; 1 μg/mL compound): 52.3 ± 2.1%
O=C(COc1cc(F)c(F)cc1F)c1ccc(O)cc1O [4a-16] |  |  |  |  | 110.5 | 45.1 ± 1.6 | 
CCCc1cc(C(=O)COc2ccc(-c3ccccc3)cc2)c(O)cc1O [4e-21] | 83.5 | 5.2 | 24.2 ± 0.5 | 0.2 |  |  | effect on the growth of the bacteria [1]: without affecting the growth of the bacteria; inhibition of rabbit blood hemolysis compared to diflunisal [2]: greater inhibition of rabbit blood hemolysis
Cc1cccc(OCC(=O)c2ccc(O)cc2O)c1 [4a-10] |  | 100 |  | 90.5 ± 6.2 |  |  | 
CCc1cc(C(=O)COc2c(F)cccc2F)c(O)cc1O [4b-13] |  |  |  |  | 85.1 | 1.2 ± 0.1 | Growth ([1]; 1 μg/mL compound): 105%; Hemolysis ([2]; 1 μg/mL compound): 48.1 ± 3.5%
CC(C)(C)c1ccc(OCC(=O)c2c(O)cc(O)cc2O)cc1 [4c-20] | 101 | 2 | 87 ± 0.5 | 0.7 |  |  | 
CCc1cc(C(=O)COc2ccc(Br)cc2)c(O)cc1O [4b-7] |  |  |  |  | 10.5 | −0.1 ± 0.0 | Growth ([1]; 1 μg/mL compound): 104%; Hemolysis ([2]; 1 μg/mL compound): 159.4 ± 27.3%
O=C(O)c1cc(-c2ccc(F)cc2F)ccc1O [Diflunisal, reference compound] | 102 | 100 | 37 ± 1.1 | 2.3 ± 0.1 |  |  | 
O=C(COc1ccc(F)cc1F)c1c(O)cc(O)cc1O [4c-12] |  |  |  |  | 119.3 | 44.0 ± 1.7 | 
Cc1cc(C(=O)COc2ccc(F)cc2)c(O)cc1O [4d-6] |  | 104 |  | 33.6 ± 10.2 |  |  | 
CCc1cc(C(=O)COc2c(F)c(F)c(F)c(F)c2F)c(O)cc1O [4b-18] | 97.2 | 4.1 | 117 ± 6.4 | 0.7 |  |  | 
O=C(COc1cc(F)c(F)cc1F)c1c(O)cc(O)cc1O [4c-16] |  |  |  |  | 111 | 21.7 ± 2.3 | 
CCc1cc(C(=O)COc2ccccc2C(=O)O)c(O)cc1O [4b-23] |  |  |  |  | 101.4 | 107.8 ± 3.3 | 
Cc1cc(C(=O)COc2ccc(Br)cc2)c(O)cc1O [4d-7] |  | 103 |  | 29.5 ± 2.9 |  |  | 
O=C(COc1ccc(F)c(F)c1)c1ccc(O)cc1O [4a-14] |  | 106 |  | 46.5 ± 2.7 |  |  | 
COC(=O)c1ccccc1OCC(=O)c1c(O)cc(O)cc1O [4c-27] |  | 104 |  | 90 ± 1 |  |  | 
CCc1cc(C(=O)COc2ccc(F)c(F)c2)c(O)cc1O [4b-14] | 107 | 79.2 | 53.6 ± 3.8 | 0 |  |  | 
CCc1cc(C(=O)COc2ccccc2F)c(O)cc1O [4b-5] |  |  |  |  | 105.2 | 9.3 ± 0.1 | Growth ([1]; 1 μg/mL compound): 104.9%; Hemolysis ([2]; 1 μg/mL compound): 85.5 ± 10.4%
CC(C)c1ccc(OCC(=O)c2c(O)cc(O)cc2O)cc1 [4c-19] | 111 | 95.9 | 127 ± 13.6 | 7.1 ± 0.3 |  |  | 
CCc1cc(C(=O)COc2cc(F)c(F)c(F)c2)c(O)cc1O [4b-17] | 103 | 40.8 | 98.5 ± 4 | 0.6 ± 0.1 |  |  | 
O=C(COc1ccccc1C(=O)O)c1ccc(O)cc1O [4a-23] |  |  |  |  | 100.8 | 107.6 ± 1.8 | 
COC(=O)c1cccc(OCC(=O)c2cc(C)c(O)cc2O)c1 [4d-28] |  | 96.7 |  | 14.6 ± 1 |  |  | 
O=C(COc1ccc(I)cc1)c1c(O)cc(O)cc1O [4c-8] |  |  |  |  | 45 | 0.1 ± 0.0 | Growth ([1]; 1 μg/mL compound): 101.9%; Hemolysis ([2]; 1 μg/mL compound): 146.9 ± 6.7%
COC(=O)c1ccc(OCC(=O)c2c(O)cc(O)cc2O)cc1 [4c-29] |  |  |  |  | 98.2 | 103.3 ± 1.1 | 

From patent publication US20180021277A1, “ANTI-VIRULENCE COMPOSITIONS AND METHODS” (priority 2012, published 2018)
